Test results as given in the supplement of paper PMC3334620.
Over roughly 33,000 sequences, “E-score (-0.5 to 0.5)” has its median near -0.054; the highest 2% begin near 0.39. The list shows a part of the results.

target: Ylr278c (UniProt Q05854); assay: PBM E-score (8-mer binding enrichment) (E-score (-0.5 to 0.5)); higher = stronger / more preferred TF binding; most listed sequences are background and not binding sites; conditions: protein concentration: 200 nM; construct: GST-DNA-binding domain
Procedure: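 Universal 'all 10-mer' protein binding microarrays (Agilent AMADID 015681) probed with GST-tagged S. cerevisiae TFs (full-length or DBD) made by in vitro transcription/translation (PURExpress), about 100-200 nM. Bound TF was detected with fluorescent anti-GST. Each ungapped 8-mer (which stands for itself and its reverse complement) is scored by the PBM enrichment score (E-score), a modified Wilcoxon-Mann-Whitney statistic from -0.5 to +0.5, computed with the Universal PBM Analysis Suite. Scale: above 0.35 generally sequence-specific binding.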

| Sequence | PBM E-score |
| --- | --- |
| AGTCCGCC | 0.424 |
| ATAGTAAG | -0.11 |
| GCGAGTTA | -0.055 |
| CAGCTTCG | -0.133 |
| GACTTCGA | -0.111 |
| CGCAACCG | 0.172 |
| GATTTAGA | 0.0778 |
| CGTTTTAG | -0.195 |
| GGACCACA | 0.0696 |
| GCTCAGGA | -0.173 |
| AAAGTGTT | 0.0904 |
| ACGAAGTA | -0.0982 |
| ACTCGGGG | 0.237 |
| GGACTGTA | -0.0447 |
| CGGCAAAC | 0.312 |
| ACATCGCT | -0.208 |
| AGGTTCCA | -0.0418 |
| AATGCGGT | 0.116 |
| CCTCCAGA | 0.0579 |
| AGGCAGAT | -0.0902 |
| GGAGTCCA | 0.164 |
| TAATTAAA | -0.156 |
| ATCATTGG | -0.246 |
| CATCCCTC | -0.0278 |
| TAAATGCA | 0.012 |

| Sequence | PBM E-score |
| --- | --- |
| AAGAGAAG | -0.156 |
| AGCGTTGC | 0.0275 |
| TAATCGCA | -0.119 |
| AGTCAGAG | -0.0321 |
| CAACGGCG | 0.207 |
| AGTGTTGC | -0.0795 |
| ACTCCGCC | 0.475 |
| ACTCACCC | 0.123 |
| TAGAACGA | -0.292 |
| AATATGTA | -0.027 |
| AGGTTCGC | 0.0317 |
| ACGACAGG | -0.0204 |
| TGAACGAA | -0.229 |
| CAAGTGAA | -0.204 |
| ATACACCC | 0.093 |
| CTAGAGTC | -0.358 |
| AGAGACTC | -0.105 |
| CGAGTGCG | 0.225 |
| AAGGCATC | -0.193 |
| CTAAAGCA | 0.047 |
| ATGTATCG | 0.00707 |
| ATCAGGTG | -0.00107 |
| GTGTAAAC | -0.0414 |
| ACCGGGGA | 0.302 |
| ACACTGCA | -0.16 |

| Sequence | PBM E-score |
| --- | --- |
| ACGTTTGG | -0.233 |
| AGCCAACC | 0.124 |
| AAGACGAC | -0.0844 |
| TGAGATCA | -0.137 |
| CTTCTTCC | 0.0364 |
| ACCAGAAC | -0.062 |
| AGAAAGGA | -0.159 |
| ATTTAACA | -0.0471 |
| AATCAAAT | 0.0839 |
| CGCGTCAG | -0.162 |
| GAGAGGAA | -0.128 |
| ATACTCAT | -0.2 |
| CCAATTCC | 0.227 |
| ATTATCGC | 0.06 |
| CGGAAAAA | 0.446 |
| AACTGTGG | -0.0559 |
| AGGCAGGC | -0.163 |
| ATGGACAA | -0.201 |
| AGGGTATG | -0.328 |
| ATTTCTAC | 0.0337 |
| ACTACTTG | -0.25 |
| GCACGTGA | -0.255 |
| AACTTAAC | 0.027 |
| CAATCCCG | 0.368 |
| GAAGCACA | 0.00269 |

| Sequence | PBM E-score |
| --- | --- |
| ATACCGTG | 0.0569 |
| CCCCGGGG | 0.412 |
| ACCTGGGC | -0.243 |
| GGTTGAAC | -0.0541 |
| CATTAACG | 0.109 |
| AAGAATCA | 0.031 |
| GCGTGTCC | 0.129 |
| ACACATGT | -0.0941 |
| CATTCAGA | -0.228 |
| ATCCGCTA | 0.196 |
| ATTAAGAC | -0.217 |
| CCTGATTC | 0.0241 |
| ATATCACG | -0.0275 |
| CGCATAAA | -0.00552 |
| GCACTCAA | -0.111 |
| ACCCCGGA | 0.445 |
| TGTACACA | -0.216 |
| AAAAGGCA | -0.112 |
| AAAGTGCT | -0.204 |
| AGCACCGA | 0.21 |
| ATACTGGA | 0.0349 |
| AAAGGATT | -0.128 |
| CAACCACA | 0.0392 |
| CTGACAAA | -0.194 |
| AAGGCAAT | -0.108 |

| Sequence | PBM E-score |
| --- | --- |
| ATAGCCTG | -0.24 |
| AAGCCCAG | -0.143 |
| GGTGTTGA | -0.138 |
| CGCCCCGC | 0.328 |
| ACATAGAC | -0.142 |
| GACTGCAA | -0.271 |
| ACACATCC | -0.0358 |
| AACGTACT | -0.0443 |
| TCCAATAA | 0.0431 |
| CCGGGTGA | 0.299 |
| CTCGGCAG | 0.16 |
| AAGTGCGT | -0.076 |
| AAGCACCT | -0.175 |
| GCATAAAA | -0.0172 |
| CACCTGCG | 0.107 |
| ATATTGGC | -0.141 |
| ACTCGTGA | -0.295 |
| CGTCCCGC | 0.205 |
| AACGTTCG | -0.0135 |
| AAGATAGC | 0.0485 |
| AAGCTTTG | -0.0399 |
| ATGTGAGC | -0.253 |
| TCAGGTCA | -0.0552 |
| GAAAGAGA | 0.0627 |
| ACCGTCCC | 0.0916 |

| Sequence | PBM E-score |
| --- | --- |
| CTTCTAGA | -0.215 |
| ATCCGCTG | 0.138 |
| AACTTCCG | 0.433 |
| ACTTTAAT | -0.0435 |
| ATGCAGTA | -0.0142 |
| ACGGAGCG | 0.396 |
| AACAGAAT | -0.189 |
| GTATTCAA | 0.0214 |
| GATACACA | -0.184 |
| CATTTTGG | -0.181 |
| CTAAATCA | -0.21 |
| AGAAATAG | -0.123 |
| GTACCCGA | 0.0289 |
| ACACTGCT | -0.345 |
| CTCTCCGA | 0.394 |
| TGCCAGAA | -0.232 |
| GAGAAGAA | 0.0471 |
| ACTGAGAG | -0.25 |
| AGCGATTG | -0.259 |
| ACTTCTAA | 0.038 |
| GCCCGTCC | 0.153 |
| TACTTGCA | -0.111 |
| ACGGTACG | -0.0708 |
| CCTACATA | 0.0183 |
| GGGTCTGA | -0.0165 |

| Sequence | PBM E-score |
| --- | --- |
| AGTCGAAA | -0.105 |
| AGGTTCTG | -0.265 |
| GTGGCATA | -0.175 |
| TAGTTTCA | -0.0254 |
| GTAAATAA | -0.157 |
| GACAGTCA | -0.172 |
| AGTAGCTC | 0.0277 |
| ATATGCCG | 0.253 |
| TACATGAA | -0.162 |
| CACCTCGG | 0.268 |
| ACTGGACT | -0.329 |
| GGAACTCC | 0.393 |
| AGGACATA | -0.278 |
| GACATAAA | -0.0366 |
| GTCCTGTA | 0.102 |
| GTATCCTA | -0.201 |
| CACAGACG | -0.17 |
| ATTAGGTC | -0.0155 |
| AGCACTTA | -0.124 |
| GTTGTTCA | -0.11 |
| TAGTACTA | -0.387 |
| GAATTAAA | -0.0378 |
| ACCGCCGG | 0.403 |
| CTACGTTA | -0.0506 |
| ATTATTAG | -0.0802 |

| Sequence | PBM E-score |
| --- | --- |
| GGTCTCAA | -0.12 |
| AGCATGCT | -0.352 |
| CGACACAG | 0.108 |
| CCCAACAA | -0.0374 |
| CTAGATCC | 0.0123 |
| CCTAAACC | -0.00994 |
| GCCTGTGA | -0.373 |
| GTCGTCAC | -0.152 |
| ACGGTGAA | 0.0953 |
| ATTTTGGG | -0.0616 |
| CAAACTTA | -0.0135 |
| CACATACA | -0.223 |
| AACTACCA | -0.0978 |
| GGTCGTCA | -0.105 |
| CACCACGG | -0.00474 |
| AAGCTTAA | -0.176 |
| GCTCTGCA | -0.156 |
| CTAAACCC | 0.0252 |
| TTCTCAAA | -0.0763 |
| CCAGTTTC | -0.069 |
| CACCCAGG | -0.112 |
| CCACGGAG | 0.418 |
| AAGCTAAG | -0.151 |
| TCCAAGAA | -0.169 |
| TATTGCGA | 0.0372 |

| Sequence | PBM E-score |
| --- | --- |
| CTGGTATA | -0.283 |
| TCCCGCCA | 0.182 |
| GGCTTATA | -0.101 |
| ACCGAGTA | 0.0881 |
| ATTGGGCG | 0.0375 |
| AATCACGC | 0.0211 |
| CTATTTAC | 0.0753 |
| ATATATTG | 0.0216 |
| GAGCTGAA | -0.0759 |
| CGTCTCAC | -0.156 |
| AATGCAAG | -0.16 |
| CAATCCGC | 0.197 |
| CGAGAGAC | -0.122 |
| GCGAGTGA | -0.0752 |
| AACATCAA | -0.0318 |
| ACTAAGAT | -0.101 |
| TGGTAAAA | 0.0307 |
| CGTAGGTC | -0.142 |
| ATAGAGGG | -0.076 |
